Test results taken from article PMC4336329 (PLoS ONE, 2015).
Screen size: about 310,000 compounds; about 2,200 (0.71%) showed an effect of 50% or more. Effects have a minus sign here. This is one part of the list.

These molecules were tested against human ether-à-go-go-related gene (hERG) potassium channel (human, UniProt Q12809) (assay: primary screen, population patch clamp on CHO cells stably expressing hERG).
Chain of human ether-à-go-go-related gene (hERG) potassium channel (Q12809 whole entry, looked up): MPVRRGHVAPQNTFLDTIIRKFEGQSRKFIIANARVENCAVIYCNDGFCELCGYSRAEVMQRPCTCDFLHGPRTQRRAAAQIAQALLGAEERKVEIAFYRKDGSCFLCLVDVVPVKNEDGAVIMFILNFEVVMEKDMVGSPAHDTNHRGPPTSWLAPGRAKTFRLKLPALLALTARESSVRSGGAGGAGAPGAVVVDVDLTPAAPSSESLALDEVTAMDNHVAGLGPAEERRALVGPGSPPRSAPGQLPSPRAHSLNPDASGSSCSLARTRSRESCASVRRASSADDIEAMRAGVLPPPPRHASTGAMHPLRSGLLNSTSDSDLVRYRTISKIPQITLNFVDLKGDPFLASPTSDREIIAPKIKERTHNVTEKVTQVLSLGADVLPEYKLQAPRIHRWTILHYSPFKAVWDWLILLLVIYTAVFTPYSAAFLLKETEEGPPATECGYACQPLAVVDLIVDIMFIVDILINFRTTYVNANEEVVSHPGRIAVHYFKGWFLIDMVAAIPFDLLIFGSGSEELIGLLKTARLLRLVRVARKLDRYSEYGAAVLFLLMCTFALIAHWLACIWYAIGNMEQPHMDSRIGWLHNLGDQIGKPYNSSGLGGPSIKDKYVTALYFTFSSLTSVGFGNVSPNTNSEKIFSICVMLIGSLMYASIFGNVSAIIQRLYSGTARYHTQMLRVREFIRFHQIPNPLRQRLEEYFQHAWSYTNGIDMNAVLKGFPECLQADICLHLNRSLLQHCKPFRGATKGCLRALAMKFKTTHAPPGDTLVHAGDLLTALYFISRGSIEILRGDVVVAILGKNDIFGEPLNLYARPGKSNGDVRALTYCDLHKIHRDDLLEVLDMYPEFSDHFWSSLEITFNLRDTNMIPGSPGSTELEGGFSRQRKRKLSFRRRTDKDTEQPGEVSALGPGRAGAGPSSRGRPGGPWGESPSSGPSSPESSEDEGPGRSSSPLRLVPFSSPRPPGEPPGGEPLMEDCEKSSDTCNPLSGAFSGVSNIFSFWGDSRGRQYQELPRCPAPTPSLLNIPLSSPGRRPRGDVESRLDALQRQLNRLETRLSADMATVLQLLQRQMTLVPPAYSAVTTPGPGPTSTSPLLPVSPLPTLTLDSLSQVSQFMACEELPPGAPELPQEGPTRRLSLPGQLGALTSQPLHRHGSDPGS

In order of rising “hERG current change (%, negative = inhibition) at 1uM” value:
1. Cc1ccc(CN2CCN(Cc3ccc(C)s3)CC2CCO)cc1 (centres unmarked)  -67.3%
2. O=C(CCCN1C(=O)CSc2ncccc21)N1CCN(c2cccc(C(F)(F)F)c2)CC1  -18.6%
3. Cc1cc(-n2c(C)cc(C(=O)CN3C(=O)NC4(CCCCC4C)C3=O)c2C)no1 (centres unmarked)  -7.92%
4. Cc1ccc(NC(=S)Nc2c(C)n(C)n(-c3ccccc3)c2=O)cc1Cl  -3.6%
5. CC(C)CN(C(=O)COC(=O)c1ccc([N+](=O)[O-])o1)C1CCS(=O)(=O)C1 (centres unmarked)  -1.06%
6. CC1CN(C2CCN(C(=O)c3ccccc3Cl)CC2)CC(C)O1 (centres unmarked)  -0.954%
7. Cc1cccnc1Nc1ncnc(N)c1[N+](=O)[O-]  1.35%
8. COc1ccc(S(=O)(=O)N(CC(=O)NC2CC2)C2CCCCC2)cc1Cl  1.59%
9. O=c1c2cc(NC(=S)N3CCCC3)ccc2nc2n1CCCCC2  3.46%
10. Cc1ccc(C(=O)N[C@H](C(=O)OCc2nnc(-c3ccccc3)o2)C(C)C)cc1  3.79%
11. CC1=CC2(O)OCCN(CCO)C2=CC1=O (centres unmarked)  4.45%
12. C/C(=N\NC(=O)c1ccc2nc[nH]c2c1)c1ccc([N+](=O)[O-])cc1  5.62%
13. COc1ccc(CCNC(=O)c2cc(=O)c3ccc(C)cc3o2)cc1OC  6.43%
14. COc1cccc(-c2nc(=S)c3c(n2CCCO)CCCC3)c1  6.81%
15. Cc1cc(=O)[nH]c(SCC(=O)NNC(=O)Cc2ccccc2)n1  7.26%
16. Nc1nc(SCc2ccccc2)n[nH]1  7.43%
17. O=C(Nc1ccc(F)cc1Cl)C1=COCCO1  8.03%
18. O=C(O)CN1C(=O)/C(=C\C(Br)=C\c2ccccc2)SC1=S  8.17%
19. COc1ccc(-c2cc(C(=O)N3CCN(c4ccccc4)CC3)c3ccccc3n2)cc1  8.46%
20. O=C(Nc1ccc(C(=O)O)cc1)/C(=C\c1ccco1)NC(=O)c1ccccc1Cl  8.82%
21. CCOC(=O)c1cc(-c2ccccc2C)nn1Cc1cc(C)no1  9%
22. COc1ccc(Sc2ncnc3onc(C)c23)cc1  9.3%
23. Cc1cc(=O)[nH]c(N/N=C/c2cn(CCC#N)nc2-c2ccccc2)n1  9.56%
24. NC(=O)c1c(NC(=O)C(=O)N2CCOCC2)sc2c1CCC2  9.56%
25. Cc1cc2ccccn2c1C(=O)c1ccc(Cl)c([N+](=O)[O-])c1  9.65%
26. COc1cc(C(=O)NCCCCc2ccccc2)cc(OC)c1OC  10.5%
27. Cc1ccc(-n2cc(CN(C)Cc3nccn3C)c(-c3ccc(F)cc3)n2)cc1  10.8%
28. CCn1c(SCc2ccc(F)cc2)nc2c(c1=O)SCC2  11.5%
29. COc1ccc2c(CC(=O)OCC(=O)Nc3cccc(S(N)(=O)=O)c3)coc2c1  11.9%
30. Cc1sc(NC(=O)C2CCCO2)c(C#N)c1C (centres unmarked)  12%
31. Cc1cccc(N2CCN(C(=O)CCS(=O)(=O)c3ccc4c(c3)NC(=O)C(C)S4)CC2)c1C (centres unmarked)  12.2%
32. CCCc1cc(=O)[nH]c(SCC(=O)N(C)C2CCCCC2)n1  13.3%
33. Cc1ccc2sc(N(CCN(C)C)C(=O)c3ccc4ccccc4c3)nc2c1C.Cl  13.4%
34. COc1cccc(CN(CC2CCCO2)C(=O)c2cc3ccccc3oc2=O)c1 (centres unmarked)  14%
35. COc1ccc(-c2cccc(NS(=O)(=O)c3cc([N+](=O)[O-])ccc3C)c2)nn1  14.7%
36. O=C(Nc1ccc(N2CCN(C(=O)c3ccco3)CC2)cc1)c1ccco1  14.7%
37. COc1cc(C)ccc1Oc1nc(-c2ccccc2O)nc2ccccc12  14.9%
38. C=CCn1c(=O)c(C(=O)Nc2ccc(C)cc2)c(O)c2ccccc21  15.6%
39. O=C(O)CCc1nn2c3ccccc3n(Cc3ccccc3)c2nc1=O  16%
40. O=C(O)c1cccc(N/N=C(\N=Nc2ccccc2)c2ccccc2)c1  16.7%
41. CC(C)(O)C#Cc1ccc(CN2CCN(C3CCCCC3)C(CCO)C2)s1 (centres unmarked)  19%
42. Cc1ccc(C(=O)Nc2ncccc2O)o1  20.9%
43. COc1ccc(-c2csc(NC(=O)/C(N=Nc3ccccc3)=C(\C)O)n2)cc1  22.8%
44. O=[N+]([O-])c1ccc(NCc2ccc3c(c2)OCO3)cc1  25.6%
